Test results from PubChem BioAssay AID504648 (National Center for Advancing Translational Sciences (NCATS), 2011).
In all, about 390,000 compounds went through this assay and about 610 (0.16%) were called active. Roughly 4% stayed inconclusive and do not appear here. Calls follow the shape of the dose curve; as a rule, active = well fitted inhibition curve with a large enough effect; inconclusive = small, poorly fitted or top-dose-only effect, or effect the other way, or another doubt; inactive = no such curve, though single readings can be large or run the other way. The entries are a selection whose mix differs from that of the whole data set.

test: Nrf2 qHTS screen for inhibitors: counterscreen for cytotoxicity; conditions: A549 ARE-Fluc cells, CellTiter-Fluor viability, 18-24 h; series mostly up to 46 µM; activity change, negative = cytotoxicity: at the top concentration
From the text: NIH Molecular Libraries Probe Production Network [MLPCN]
NIH Chemical Genomics Center [NCGC]
Assay Provider: Shyam Biswal, Johns Hopkins University
Nrf2 is a transcription factor that maintains cellular redox homoestasis and protects cells from xenobiotics. Nrf2 binds to the antioxidant response element (ARE) to induce gene expression of a broad spectrum of genes that encode for antioxidants. […] Finding a small molecule that act as an inhibitor of Nrf2 function would represent a novel therapeutic target that could lead to improvement in survival of patients undergoing chemo- and/or radio- therapy.
So here we implemented a counterscreen to weed out the cytotoxic compounds.
1. Shibata, T., et al., Genetic Alteration of Keap1 Confers Constitutive Nrf2 Activation and Resistance to Chemotherapy in Gallbladder Cancer. Gastroenterology, 2008.
2. Sjoblom, T., et al., The consensus coding sequences of human breast and colorectal cancers. Science, 2006. 314(5797): p. 268-74.
NCGC Assay Protocol Summary:
A concentration-response assay was performed with A549 ARE_Fluc cells which are suspended in 5% FBS OPTI-MEM. Five uL were dispensed into 1536-well white TC-treated plate using the Kalypsys dispenser to achieve a density of 5000 cells/well in all columns except column 1. The plate is incubated at 37deg C at 5% CO2 for 2 hours before 23 nL of compounds are added with the Kalypsys pin tool equipped with a 1,536-pin array containing 10-nL slotted pins (FP1S10, 0.457-mm diameter, 50.8 mm long; V&P Scientific). The control compounds Budesonide and Staurosporine are both added at a concentration of 2mM and Budesonide is also added as a 1:10 titration, starting at 200uM, to achieve dose-response. After an 18-24 hour incubation at 37deg C at 5% CO2, 5ul of medium is added to column 1. Afterwards 1ul of 5x of CellTiter-Fluor (Promega) is added to every well. The plate is then incubated at 37deg C at 5% CO2 for 30 minutes before they are read on the ViewLux (Perkin Elmer) for a fluorescent read Ex=405(10)/Em=525(10) for a 3 second exposure, 2x binning, and high gain. Then 3 uL of 3x BugLite is dispensed into all wells and the plate is incubated at ambient room temperature for 15 minutes. Afterwards another ViewLux read is performed using the clear filter to get a luminescent read with the settings of 40 second exposure, 2x binning, and high gain. Cytotoxicity is assessed through the first fluorescent read and then biochemical activity against Nrf2 is measured in the luminescent read.
% is scaled to controls: 0 for no effect and ±100 for the full control effect; potency is read from the fitted curve at half-maximal effect.

Compound | activity change, negative = cytotoxicity | Potency
COc1cccc(-n2c(C)nc3cc(C(=O)O)ccc32)c1 | inactive: 3.98% | –
CCC(=O)NC(c1ccc(C)cc1)c1ccc2cccnc2c1O (configuration not stated) | inactive: -12.1% | –
COc1ccc(N2CCN(C(=O)c3ccc4c(=O)n(CCc5ccc(OC)c(OC)c5)c(=O)[nH]c4c3)CC2)cc1 | inactive: -7.45% | –
CN(C)CCCNc1cc(O)c2ncccc2c1 | – | active: 10.3 µM
CC1CCCN(CCCNC(=O)c2cc3c(Cl)nc4ccccc4c3s2)C1 (configuration not stated) | inactive: -3.5% | –
CCc1ccc(CNC(=O)C2CCN(c3nnc(C)c4c(C)n(-c5ccc(C)cc5)nc34)CC2)cc1 | inactive: -4.14% | –
Cc1cc(NC(=O)CSc2nc3c([nH]c4ccccc43)c(=O)n2-c2ccccc2F)no1 | inactive: -20.6% | –
CCCCc1c(C)c(C#N)c2nc3ccccc3n2c1NCCN(C)C | – | active: 6.51 µM
C[C@@H](C(=O)N1CCN(c2ccccc2)CC1)N1C(=O)C2CC=CCC2C1=O (some centres not stated) | inactive: -0.744% | –
CN1N/C(=C\c2ccccc2)N=C2C(=O)N(C)C(=O)N=C21 | – | active: 5.8 µM
Nc1ccc(NC(=O)c2cccc(C(=O)Nc3ccc(N)cc3Cl)c2)c(Cl)c1 | inactive: -10.1% | –
CN(CCCNC(=O)c1cc2c(Cl)nc3ccccc3c2s1)Cc1ccccc1 | inactive: 9.65% | –
CCCOc1ccc(C2C(C(=O)c3cc4ccccc4o3)=C(O)C(=O)N2c2cc(C)on2)cc1 (configuration not stated) | – | active: 20.6 µM
CCOc1ccccc1CNC(=O)C1CCN(c2nnc(C)c3c(C)n(-c4ccc(C)cc4)nc23)CC1 | inactive: -14.5% | –
COc1cc(C(CC(=O)N2CCCC2)c2c(OC)cc(OC)c3c(-c4ccccc4)cc(=O)oc23)cc(OC)c1OC (configuration not stated) | inactive: -6.17% | –
CN1CCN(C(=O)CCN2C(=O)/C(=C/c3ccc(F)cc3)SC2=S)CC1 | inactive: -21.3% | –
CCOCCCn1c(=NC(C)=O)c(C(=O)OCC)cc2c(=O)n3ccccc3nc21 | inactive: -3.06% | –
CCO[C@@H]1OC(C(=O)NCc2ccccc2)=C[C@H](c2ccc(C(F)(F)F)cc2)[C@H]1CCCO | – | active: 16.4 µM
Cc1nn(C(C)C(=O)NCc2ccco2)c(=O)c2nn(-c3ccccc3)c(C)c12 (configuration not stated) | inactive: -3.25% | –
CCCCN(CC)CCNC(=O)CN1C(=O)COc2ccc(S(=O)(=O)N3CCCC3)cc21 | inactive: 0.612% | –
COc1ccc(C2c3c(ncn(CCN4CCOCC4)c3=N)Oc3ccc4ccccc4c32)cc1OC (configuration not stated) | inactive: 4.98% | –

Compound | activity change, negative = cytotoxicity | Potency
CCN(CC)CCCNC(=O)CSc1c2c(nc3cc(Cl)ccc13)CCCC2 | inactive: -3.79% | –
CCN1/C(=C/C(C)=C/c2sc3ccccc3[n+]2CC)Sc2ccccc21 | – | active: 20.6 µM
OCC1OC(n2cnc3c(NCc4ccco4)ncnc32)C(O)C1O (configuration not stated) | inactive: -12.8% | –
CC(N=C(NC#N)Nc1ccncc1)C(C)(C)C (configuration not stated) | inactive: -3.73% | –
CC(C)C[C@H]1C(=O)N2CCC[C@H]2[C@]2(O)O[C@](NC(=O)[C@@H]3C=C4c5cccc6[nH]c(Br)c(c56)CC4N(C)C3)(C(C)C)C(=O)N12 (some centres not stated) | inactive: -1.28% | –
Cc1ccc(Cn2cc(C(=O)c3ccc(F)cc3)c(=O)c3cc4c(cc32)OCCO4)cc1 | inactive: -3.41% | –
N#C/C(=C(/O)c1ccco1)c1nc2ccccc2s1 | inactive: 0.234% | –
CCOC(=O)C1=C(C)NC(C)=C(C(=O)OCC)C1C(=O)OCC(=O)N1CCCCC1CC (configuration not stated) | inactive: -7.84% | –
N#C/C(=C/C1=C(N2CCOCC2)C(=C/c2cccc([N+](=O)[O-])c2)/CC1)C(=O)Nc1ccccc1F | inactive: -19.6% | –
O=C(C[C@@H]1C/C=C\CC[C@@H](Cc2ccc(F)cc2)C(=O)OC[C@@H]2CCCN2C1=O)N[C@H](CO)Cc1ccccc1 | inactive: -18.5% | –
O=C(C[C@H]1C/C=C\CC[C@H](Cc2ccc(F)cc2)C(=O)OC[C@H]2CCCN2C1=O)N[C@H](CO)Cc1ccccc1 | inactive: -0.0111% | –
C[C@H](CO)N1C[C@H](C)[C@@H](CN(C)S(=O)(=O)c2ccccc2)Oc2c(NC(=O)Nc3ccc(C(F)(F)F)cc3)cccc2C1=O | inactive: -9.19% | –
Cc1nnc(N2CCCC(C(=O)Nc3cc(F)ccc3F)C2)c2nn(-c3ccccc3)c(C)c12 (configuration not stated) | inactive: -12.8% | –
N#Cc1nc(NCC(F)F)nc(Nc2cc(F)cc(F)c2)n1 | inactive: -8.36% | –
C=CC[C@H](CC(=O)NCCO)C(=O)N[C@@H](COC(=O)[C@@H](CC=C)Cc1ccc(F)cc1)Cc1ccccc1 | inactive: -1.27% | –
Cc1ccc2nc(N3C(=O)C(O)=C(C(=O)c4ccco4)C3c3cccs3)sc2c1 (configuration not stated) | – | active: 14.6 µM
COc1cc(NC(=O)CN2C(=O)COc3ccc(S(=O)(=O)N4CCCCC4)cc32)cc(OC)c1 | inactive: -2.39% | –
Cc1oc(-c2ccccc2F)nc1CS(=O)(=O)CC(=O)N1CCN(c2ccccc2)CC1 | inactive: 7.5% | –
CN(C)CC(C)(C)CNS(=O)(=O)c1ccc(Cl)c(Cl)c1 | inactive: 0.887% | –
C=CC[C@@H](CC(=O)NCCO)C(=O)N[C@@H](COC(=O)[C@@H](CC=C)Cc1ccc(F)cc1)Cc1ccccc1 | inactive: 4.6% | –
COc1ccc(OC)c(S(=O)(=O)Nc2ccc3c(c2)n(C)c(=O)n3C)c1 | inactive: -9.68% | –

Compound | activity change, negative = cytotoxicity | Potency
Fc1ccc([C@@H]2CCNC[C@H]2COc2ccc3c(c2)OCO3)cc1 | inactive: -2.01% | –
O=C(CCCN1C(=O)/C(=C/c2cccs2)SC1=S)Nc1ccc(O)cc1 | inactive: -5.78% | –
Cc1cc(/C=C2\SC(=O)NC2=O)c(C)n1-c1ccc(N2CCOCC2)cc1 | inactive: -4.13% | –
O=C1/C(=C\c2ccc(Cl)c(Cl)c2)CN(C(=O)CCN2CCOCC2)C/C1=C/c1ccc(Cl)c(Cl)c1 | – | active: 20.6 µM
C=CC[C@H](CC(=O)N[C@H](CO)Cc1ccccc1)C(=O)N[C@H](COC(=O)[C@@H](CC=C)Cc1ccc(F)cc1)Cc1c[nH]c2ccccc12 | inactive: 0.09% | –
CCc1cccc2c(C(=O)COC(=O)c3ccc([N+](=O)[O-])s3)c[nH]c12 | – | active: 20.6 µM
CC(C)(C)[C@H]1COC(=O)[C@H](NC(=O)OCC2c3ccccc3-c3ccccc32)C/C=C\C[C@@H](CC(=O)N[C@@H](CO)Cc2ccccc2)C(=O)N1 | inactive: -18.8% | –
CC1CCN(CCCNC(=O)CN2C(=O)CSc3ccc(S(=O)(=O)N4CCC(C)CC4)cc32)CC1 | inactive: -0.547% | –
C=CC[C@@H](CC(=O)N[C@H](CO)Cc1ccccc1)C(=O)NC[C@@H](OC(=O)[C@@H](CC=C)Cc1ccc(F)cc1)c1ccccc1 | inactive: -1.39% | –
Cn1nc(-c2ccncc2)nc2c(=O)n(C)c(=O)nc1-2 | – | active: 2.91 µM
CN1CCc2c(sc(NC(=O)c3ccc([N+](=O)[O-])o3)c2C(N)=O)C1 | – | active: 20.6 µM
O=C(NCc1ccccc1)C1=C[C@H](C2CCCCC2)C[C@H](OCc2ccc(CO)cc2)O1 | inactive: 1.45% | –
Fc1ccc(Nc2nc3nonc3nc2Nc2cccc(C(F)(F)F)c2)cc1 | – | active: 8.2 µM
COc1cc(C(=O)O[C@H]2C/C(C)=C/CC[C@]3(C)O[C@@H]3C(O)C2C(C)C)cc(OC)c1OC (some centres not stated) | inactive: -1.63% | –
Cc1nn(Cc2ccc(Cl)cc2)c(C)c1NC(=O)c1noc2c1CCc1ccccc1-2 | inactive: 0.412% | –
O=C(CCSCc1ccccc1Cl)N1CCN(c2cccc(Cl)c2)CC1 | inactive: -0.342% | –
C/C=C(/C)C(=O)O[C@@H]1c2c(ccc3ccc(=O)oc23)OC(C)(C)[C@@H]1OC(=O)/C(C)=C\C | inactive: -11.6% | –
O=c1cc(-c2ccc(O)c(O)c2)oc2cc(O)c([C@@H]3O[C@H](CO)[C@@H](O)[C@H](O)[C@H]3O)c(O)c12 | inactive: -17.9% | –
OCCN(CCO)CC(O)COc1ccc(Br)cc1 (configuration not stated) | inactive: 2.49% | –
CC(C)Cn1cnc2c(c(-c3ccccc3)c(-c3ccccc3)n2Cc2ccco2)c1=N | – | active: 23.1 µM
C=CCC[C@H](Cc1ccc(F)cc1)C(=O)OC[C@@H](C)NC(=O)[C@@H](CC=C)CC(=O)N[C@@H](CO)Cc1ccccc1 | inactive: -1.93% | –

Compound | activity change, negative = cytotoxicity | Potency
CC1OC(Nc2ccc(N=Nc3ccccc3)cc2)C(O)C(O)C1O (configuration not stated) | inactive: -26.5% | –
C=CC[C@@H](CC(=O)N(CCO)Cc1ccccc1)C(=O)NC[C@H](OC(=O)[C@@H](CC=C)CC(=O)OC(C)(C)C)c1ccccc1 | inactive: -19% | –
CCCCCCCCCCCCCCCC[n+]1ccccc1 | inactive: -16.3% | –
O=C(C[C@H]1C/C=C\C[C@@H](Cc2ccc(F)cc2)C(=O)O[C@@H](c2ccccc2)CNC1=O)N[C@@H](CO)Cc1ccccc1 | inactive: -13.6% | –
Cc1ccc(C)c(N2CCN(CCCNC(=O)c3cnn(-c4ccc(F)cc4)c3C3CCN(C(=O)OC(C)(C)C)CC3)CC2)c1 | – | active: 18.4 µM
CC(C)(C)OC(=O)C[C@@H]1C/C=C\C[C@@H](CC(=O)N(CCO)Cc2ccccc2)C(=O)NC[C@@H](c2ccccc2)OC1=O | inactive: -7.32% | –
COc1ccccc1NC(=O)Cc1csc(NC(=S)Nc2ccccc2)n1 | – | active: 18.4 µM
CCN(CC)C(=O)CC(c1ccc2c(c1)OCO2)c1c(OC)cc(OC)c2ccc(=O)oc12 (configuration not stated) | inactive: -11.6% | –
O=C(C1=C[C@@H](c2ccc(C(F)(F)F)cc2)C[C@@H](OCCCCO)O1)N1CCN(Cc2ccccc2)CC1 | inactive: -12% | –
O=C(C[C@H]1C/C=C\C[C@H](Cc2ccc(F)cc2)C(=O)O[C@@H](c2ccccc2)CNC1=O)N[C@@H](CO)Cc1ccccc1 | inactive: -13.5% | –
O=C(NCc1nc2ccccc2[nH]1)C1=C[C@H](C2CCCCC2)C[C@H](OCc2ccc(CO)cc2)O1 | inactive: -24.9% | –
O=C1CCN(CCc2ccccc2)CCN1[C@H](CSc1ccc(Br)cc1)Cc1ccccc1 | inactive: -12.6% | –
O=C(NCCCO)c1ccc2nc(-c3ccco3)c(-c3ccco3)nc2c1 | inactive: -19% | –
OC[C@@H](O)[C@@H](O[C@@H]1O[C@H](CO)[C@H](O)[C@H](O)[C@H]1O)[C@H](O)[C@@H](O)CO | inactive: -2.86% | –
N#Cc1nc(Nc2cccc(Cl)c2)c2ncn(C3CCCC3)c2n1 | inactive: -21.2% | –
Cc1ccc(Nc2nc(N)nc(CSc3nc4ccccc4s3)n2)cc1 | inactive: -4.26% | –
COc1ccc([C@@H]2C[C@H](c3ccccc3)Oc3cc(OC)c(OC)c(OC)c32)cc1 | inactive: 15.3% | –
CN1/C(=C/c2cccc[n+]2C)Sc2ccccc21 | – | active: 11.6 µM
COc1cc(O)c(C(CC(=O)N2CCN(c3ccccc3)CC2)c2ccc(N(C)C)cc2)c(OC)c1 (configuration not stated) | inactive: 4.65% | –
